According to PubChem BioAssay AID1671194 (National Center for Advancing Translational Sciences (NCATS), 2021):
Out of some 140,000 compounds screened, about 240 (0.17%) were called active. Inconclusive results, whose numbers are uncertain, are shown with a selection of clear calls. The call rests on the fitted dose curve; in most records, active means well fitted inhibition curve with a large enough effect; inconclusive means small, poorly fitted or top-dose-only effect; inactive means no such curve, though single readings can be large or run the other way. Potencies beside an inconclusive call are fits to weak or partial responses and may not hold up.

Test: Primary qHTS assay for inhibitors of alpha-synuclein gene (SNCA) expression; further: nearly all actives have a fitted effect of over 45% in size
Settings: HEK-293 SNCA-luciferase knock-in, luminescence, 24 h; series mostly up to 57.2 µM
Potency means the concentration at half of the fitted maximal effect; tags describe the fitted curve by direction and shape.

| Structure (SMILES) | Potency |
| --- | --- |
| O=[S+]([O-])(Nc1ccccc1)c1ccc2c(c1)OCCN(Cc1ccc(F)cc1)C2 | inconclusive: 14.1 µM [inhibitor, partial curve, poor fit] |
| COc1ccc(-c2cc(-c3cccc(OC)c3OC)cn3cncc23)cc1 | inactive |
| O=C(CCc1nc2cccnc2n1Cc1cccs1)Nc1cccc(C(F)(F)F)c1 | inconclusive: 14.1 µM [inhibitor, partial curve] |
| COc1cncc(CN2CCC3(CC2)OC(=O)N(Cc2ccccc2C#N)C3(C)c2ccccc2)c1 (stereo not given) | inconclusive: 20 µM [inhibitor, single point] |
| CN(Cc1cccc(C(F)(F)F)c1)Cc1ccccc1OC(F)(F)F | inactive |
| COc1ccc(OC)c(-c2nc3c(C#N)c[nH]n3c2NC2CCCCC2)c1 | inconclusive: 20 µM [inhibitor, partial curve, poor fit] |
| O=C(Cc1ccccc1)Nc1ccc([C@@H](O)[C@H]2COCC(=O)N2Cc2ccccc2)cc1 | inconclusive: 35.5 µM [inhibitor, single point] |
| O=C(NCC(=O)N1CCN(Cc2ccccc2)CC1)c1cccc(-c2ccc(C(F)(F)F)cc2)c1 | inconclusive: 39.8 µM [inhibitor, single point] |
| COc1cccc(CC(=O)Nc2ccc3c(N4CCCCC4)ncnc3c2)c1 | inconclusive: 25.1 µM [inhibitor, single point] |
| C=CCNC(=O)c1cn2c(n1)CN([S+](=O)([O-])c1cccc(C(F)(F)F)c1)CC2 | inconclusive: 1.78 µM [inhibitor, partial curve, poor fit] |
| Cn1c(=O)n(-c2ccc(C(C)(C)C#N)cc2)c2c3cc(-c4cnc5ccccc5c4)ccc3ncc21 | inconclusive: 1.08 µM [inhibitor, full curve] |
| COc1ccc(-c2ccc3c(N4CCOC[C@H]4C)nc(N4CCOC[C@H]4C)nc3n2)cc1CO | inconclusive: 9.61 µM [inhibitor, partial curve] |
| Cc1cccc(OCC(=O)NC(Cc2c[nH]c3ccccc23)C(=O)O)c1C (stereo not given) | inconclusive: 39.8 µM [inhibitor, single point] |
| CCN1C(=O)c2ccccc2Sc2ccc(NC(=O)COc3ccc(Cl)cc3)cc21 | inconclusive: 17.8 µM [inhibitor, single point] |
| CCOc1ccc(-c2cnc(NCc3ccc(C(F)(F)F)cc3)n2C)cc1 | inconclusive: 20 µM [inhibitor, single point] |
| CC(=O)N1CCN(c2ccnc(-c3nnc(C)n3C3CCCCC3)c2)CC1 | inactive |
| O=C(C1CCCN1[S+](=O)([O-])c1cccc(C(F)(F)F)c1)N1CCC(N2CCOCC2=O)CC1 (stereo not given) | inactive |
| CCc1ccc(CNC(=O)c2ccc3nc(SCc4ccc(F)cc4)n(C)c3c2)cc1 | inconclusive: 7.08 µM [inhibitor, single point] |
| COc1ccc(-c2cnc3[nH]cc(CC(=O)Nc4cccc(F)c4)c3c2)cc1 | inactive |
| O=c1c(-c2ccc(Cl)cc2)nc2cnc(N3CCNCC3)nc2n1-c1ccccc1 | inconclusive: 17.8 µM [inhibitor, single point] |

| Structure (SMILES) | Potency |
| --- | --- |
| COc1cc(NC(=O)CN2C(=O)C(c3ccc(C)cc3)=NC23CCCCC3)cc(OC)c1 | inconclusive: 35.5 µM [inhibitor, single point] |
| C=CCN1CCN(C(=O)c2c(C)oc3c2CN(Cc2ccc(F)cc2)CC3)CC1 | inactive |
| Cc1ccc(-n2nc(C(=O)N3CCN(c4cccc(C(F)(F)F)c4)CC3)c(=O)n(C)c2=O)cc1 | inconclusive: 20 µM [inhibitor, single point] |
| Cc1noc(-c2cn(C3CCN(C(=O)Cc4ccc(F)cc4)CC3)nn2)n1 | inactive |
| NCCCCC(=O)N1CCOc2c(O)cc(-c3csc4ccccc34)cc2C1 | inactive |
| CC(=O)N(C1CC1)C1CCOC2(CCN(C(=O)Nc3ccccc3)CC2)C1 (stereo not given) | inactive |
| CCCCC(=O)Nc1cc(C)c(O)c(-c2nc3ncccc3o2)c1 | inconclusive: 35.5 µM [inhibitor, partial curve, poor fit] |
| O=C(NCc1ccc(F)cc1)[C@@H]1C[C@@H](c2cccc(C(F)(F)F)c2)N(CC2CCOCC2)C1 | inconclusive: 12.6 µM [inhibitor, partial curve, poor fit] |
| COc1cccc(CNC(=O)C2CCN(C(=O)N3CCOc4ccc(Cl)cc43)CC2)c1OC | inconclusive: 39.8 µM [inhibitor, single point] |
| CC1(C(=O)NCCCn2ccnc2)CCc2cnc(NCc3ccccc3)nc21 (stereo not given) | inconclusive: 2.82 µM [inhibitor, partial curve, poor fit] |
| COc1ccc(CNC(=O)[C@@H]2Cc3nc[nH]c3CN2C(=O)NC2CCCCC2)cc1 | inactive |
| CCOc1cc(CC(=O)N[C@@H](CC(C)C)c2ccccc2N2CCCCC2)ccc1C(=O)O | inconclusive: 0.171 µM [inhibitor, full curve, poor fit] |
| COc1ccc(-c2nc(C3CC3)nc3c2CN([S+](=O)([O-])c2cccs2)CC3)cc1 | inactive |
| Cc1ccsc1CCN1C(=O)N(c2ccccc2)C(=O)C1CC(=O)Nc1ccc(F)cc1 (stereo not given) | inconclusive: 14.1 µM [inhibitor, single point] |
| O=C(Nc1ccccc1)N1Cc2[nH]cnc2C[C@H]1c1nc(-c2ccccc2)no1 | inactive |
| Cc1ccc(C(C(=O)O)N2CCC(C(=O)N3CCCC3)CC2)c(C)c1 (stereo not given) | inconclusive: 6.31 µM [inhibitor, single point] |
| COc1cc(C)ccc1S(=O)(=O)NCC1CNCCOC1 (stereo not given) | inconclusive: 1.78 µM [inhibitor, partial curve, poor fit] |
| CCOC(=O)c1ccc(NC(=O)Cn2nc(SC)c(S(=O)(=O)c3ccc(Cl)cc3)c2N)cc1 | inconclusive: 20 µM [inhibitor, partial curve, poor fit] |
| COc1cc2nc(-c3ccc(N4CCN(C)CC4)cc3)nc(NCCN3CCOCC3)c2cc1OC | inconclusive: 7.64 µM [inhibitor, partial curve, poor fit] |
| COc1ccc(CNC(=O)CSc2ncc3c(n2)-c2ccc(Cl)cc2N(Cc2ccc(F)cc2)S3(=O)=O)cc1OC | inconclusive: 10 µM [inhibitor, partial curve, poor fit] |
